Assay results from the supplement of paper PMC11417369.
± gives the standard deviation of the averaged measurements. Some of the results follow.

test system: PfAP2-LT AP2 domain (GST-tagged); test: gcPBM binding intensity (ln(normalized median fluorescence intensity)); higher = stronger DNA binding
In short: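 For binding intensity, the highest Masliner-normalised natural-log median intensity across replicate spots of either probe orientation was taken. Protein bound to the array was stained with Alexa488 anti-GST antibody and scanned at 488 nm. The protein, GST-tagged P. falciparum DNA-binding domains from E. coli at about 25 μg on average, had been applied for 1 h to an Agilent 4 × 180k array of primer-extended double-stranded 36-bp intergenic genomic probes and negative controls.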

Sequence | gcPBM binding intensity (ln)
TTGTCAAAAATTACACACATAAATGAATAAATAAAT [XGTACX_negctrl_site541] | 9.05 ± 0.4
ATTTATGAAAAAAATACATGCATGTCCATATAAATT [TGCATGCA_site505] | 8.83 ± 0.55
TCTTTCTATTAAACATGTACTTGTCTAAAGACATAA [XGTACX_site8564] | 8.44 ± 0.45
CGAATAAATATATGTAGTACATGTTGTAGATAATTT [XGTACX_site1218] | 8.99 ± 0.47
TATATATATTTAAATTGTACATATATTATTCATATG [XGTACX_site911] | 8.73 ± 0.45
TTGGTTTCTTGTTTTTGTACCCATAATTTGTAATAT [XGTACX_site1248] | 8.97 ± 0.44
AAAAAAAAAAAAAAAAGTACAAATTTAAAAATGTGT [XGTACX_site112] | 8.62 ± 0.5
AATAATAAAATAAAAGTGCATTAATTATAATTCTTT [GTGCAC_site9491] | 8.52 ± 0.51
AATTATAATAATAATAGTACATAAGTATATAAATAA [XGTACX_site2400] | 8.88 ± 0.46
TTAAATATTTATATTTGTACACAATCAATCATACAC [XGTACX_site5793] | 8.68 ± 0.48
GAGGAAAAAAAAAAAAGTACATTATATAAGAAAATT [XGTACX_site2610] | 8.59 ± 0.51
ATATATATATTTTATTGTACAAAAAAAAAAAAAAAA [XGTACX_site6803] | 8.47 ± 0.4
TTGTTATGCATTGGTTGTACATAAGTATAAGTAATT [XGTACX_site5401] | 8.75 ± 0.31
TTTGTTTGTAAAATGTTGCACTTTCTTTTGCTGATA | 8.87 ± 0.38
ATAGGATTCTCAAAGTGTACTTGTCTACTGTAGTTT [XGTACX_site4202] | 8.87 ± 0.39
CCATTATACACAATATGTACATATATATAATCATTT [XGTACX_site7942] | 8.85 ± 0.38
AAAAAAAAAATATGTACACACATATAAAATACATAA [CACACA_site6869] | 9.13 ± 0.46
ATATATATATTATATGCACACTAATAAGACTATTTA [CACACA_site5880] | 8.79 ± 0.31
CATAAATACAGTAACACACACAAAAAAATATGAATA [CACACA_site6066] | 9.68 ± 0.54
TGTTTTGTTATTTTTATTTATATAAATAAAGCTATA [GTGCAC_negctrl_site88] | 8.57 ± 0.42
ATGAACATCCAATATACACACATATATATTTATATT [CACACA_site829] | 9.09 ± 0.36
TAATGTTTCAAAATTTAATATACTACAAATATTATA [TGCATGCA_negctrl_site336] | 8.18 ± 0.45
CAAAAAAAAAAAAAAACACACATTAAATTATAAAGA [CACACA_site2613] | 8.73 ± 0.64

Sequence | gcPBM binding intensity (ln)
TTACAAAAAAAAAGGCGCGGATGGGGGCAATAGCAA [CACACA_negctrl_site238] | 9.39 ± 0.45
TTTATATAGAAACACACACACAAAAAAAAAAAAAAA [CACACA_site2646] | 9.29 ± 0.43
TAAGATATAAAAAATGTGCACATTAAAGTATTAATT | 8.9 ± 0.45
TGTTATTCTGCATATACACACAAATAACAATTTAAA [CACACA_site6943] | 8.67 ± 0.38
TCTTATGATGGAATGTTAAATATTACATTTTGTTTA [TGCATGCA_negctrl_site503] | 8.45 ± 0.52
TATATGTGGGTTTTTTTTATGTGTTTTTCTTTTTTT [CACACA_negctrl_site936] | 9.15 ± 0.35
CATTTCATTAATAAATGTACTTGTGAAGAGAAAAAG [XGTACX_site3115] | 8.39 ± 0.43
AAAAGATAAAAAGAAGTGCATAATAGGAACAAATAT [GTGCAC_site9717] | 9.18 ± 0.51
ACAAAATTTACAAAATGTACAAAATATACAAAATGT [XGTACX_site3543] | 8.88 ± 0.39
TACATAAATACATACACACACATATAACCAATGTAG [CACACA_site5243] | 9.54 ± 0.21
CACATATATACACATACACACACACCCATACACCCA [CACACA_site8505] | 10.1 ± 0.25
TTTACATTTTAGGAAGTGCATATAATAAATACTATC | 8.47 ± 0.38
AGAGTACAAGTAAATACACACATATATATGAAAATA [CACACA_site1079] | 9.33 ± 0.44
ATTTATATTTAATATACACACATTATTTTTTTATAT [CACACA_site574] | 8.91 ± 0.49
ATCACATTCCACGGTACACACTAAAAGAAAAATCAG [CACACA_site5907] | 8.99 ± 0.41
TATAATATGACAAGAAGTACATATATTTACATATAT [XGTACX_site1571] | 8.73 ± 0.44
ATATAATATTTTAGAGTGCACCGATAACAATAAATA [GTGCAC_site9754] | 8.8 ± 0.47
CAAGTATTATATTGCGCATGCAAAGAAGGACACAAA [TGCATGCA_site1024] | 9.12 ± 0.42
TTATCTAGTACATACATACACACAACCATGTTATGA [CACACA_site3988] | 9.02 ± 0.38
ATATATATATATATATATATAATAAAAGATCATTTA [XGTACX_negctrl_site371] | 8.99 ± 0.31
ATAATAAAAAGAAAAAGTACAAATGATTATGTTTGA [XGTACX_site3615] | 8.95 ± 0.57
TACTTTATTTTTTATACACACACAATATGTATATAT [CACACA_site9184] | 9.26 ± 0.45
GTATTTCTTTAATATACACACACCAAAACAAAAAAA [CACACA_site579] | 9.12 ± 0.32

Sequence | gcPBM binding intensity (ln)
AATAAATAAATAAGTACACACATATAAATATAAATA [CACACA_site6271] | 9.13 ± 0.37
TTCTACATGAAGTTATAAATTAATATTTTAATTTAT [XGTACX_negctrl_site134] | 8.21 ± 0.47
ATATATATATATATTTATTCATATATTTTTTGTCTT [TGCATGCA_negctrl_site58] | 9.05 ± 0.52
TAAAGAAACGCATCGACGCACACTACAAAATAAAAA [CACACA_site1348] | 9.07 ± 0.52
TTTTTATTTTTTCAGTGTACATTTAAATTATCTTAT [XGTACX_site3905] | 8.69 ± 0.57
AAATAAATACATAATACATGCATATTTAATATATAG [TGCATGCA_site135] | 8.79 ± 0.52
GTACAATCATATACTACATGCAGTTTTTTTTATTGA [TGCATGCA_site230] | 8.93 ± 0.32
AATTTTTTTTAATGATGTACTTTTTGAAAATAAACT [XGTACX_site4221] | 8.34 ± 0.47
TTTTCTTTTTCTTGTACACACATAATATGGATGAAA [CACACA_site808] | 8.79 ± 0.51
TAGATATATAAATACACACACATACACAAAAAAAAA [CACACA_site7652] | 9.61 ± 0.18
TTTTTTATTATTATTATTTTTTATGTATAATAATGT [CACACA_negctrl_site631] | 8.55 ± 0.47
TATAAATATCTGAATTGTACAGGTGAAAAAAAAAAT [XGTACX_site1867] | 8.74 ± 0.51
TATGAATACATTTGTTGTACTTAAATTTCCTTTATT [XGTACX_site5374] | 8.73 ± 0.43
TTACTTTTTTTTTTATGTACTTATATTTTTTACACT [XGTACX_site3503] | 8.89 ± 0.5
AAATAATTTATGCATACACACATATATATATATATA [CACACA_site4020] | 9.63 ± 0.14
TTTCTATTCCATTCAACACACAAAAATGTATGCTTT [CACACA_site1072] | 8.91 ± 0.47
AATGGATATTTCTTTATATATATCTTATTTGATTAT [XGTACX_negctrl_site284] | 8.75 ± 0.41
ATTATATAGAATTGTACATGCGAATTGTATAACGAT [TGCATGCA_site125] | 9.04 ± 0.29
TATAAACGTATAATATGTACACACACATATATACAA [XGTACX_site1686] | 9.28 ± 0.31
AAAAAAAAAAAAAAAAATATATTTATGAAATAAAAA [TGCATGCA_negctrl_site262] | 8.18 ± 0.57
TATTTTTTTTTTTTTTTTTTTTTTATATATACATAT [CACACA_negctrl_site23] | 8.61 ± 0.52
CACAAAATAAATTAAACACACAACATCATATATGTA [CACACA_site846] | 9.12 ± 0.4
GAAGAAGTTTAAAAAGCACACAAAAAAAAAAAAAAA [CACACA_site9088] | 8.63 ± 0.46

Sequence | gcPBM binding intensity (ln)
TAAATTATTATCCCCTCACACACAAAAATAAAAAGA [CACACA_site2886] | 9.35 ± 0.16
TATTTATAAACATACGCACACATTAATATATATATA [CACACA_site9314] | 9.02 ± 0.35
AGATATTCTACTATGTGTACATATATATATATAATT [XGTACX_site5060] | 9.02 ± 0.33
ATTATTATTAATCTTGTGCACATATATTTTAATTAG | 8.91 ± 0.46
CTTGTAGATATAAAATGTACAAAAATAAATTGCACA [XGTACX_site4409] | 8.68 ± 0.38
TTACTCATGAAAGATACACACATTCGTTATTTATAT [CACACA_site7517] | 8.95 ± 0.38
TATACATGTATATATTGTACATATGTTTTTTTTACA [XGTACX_site3300] | 8.87 ± 0.44
TTTTTTCAAATTTTCTTTTTTCTTTTGTTTTTTTTG [CACACA_negctrl_site380] | 8.3 ± 0.78
TTTTTATAATGATACATATATTATTTTATTCTTAAT [CACACA_negctrl_site124] | 8.44 ± 0.58
ACATTAAGACACATTGCACACGTGCACCCATAGAAA [CACACA_site8029] | 9.16 ± 0.38
ACCTGGACAAAAATAAATAAATAAATAAATAAATGA [GTGCAC_negctrl_site238] | 8.68 ± 0.6
TTTATATATTATTAATGTACAAAATTTTTATTGCAT [XGTACX_site3329] | 8.52 ± 0.48
TAAATACAGAAACACACACACAAATATATACATACA [CACACA_site2880] | 9.88 ± 0.13
AATTCTTTTTTCAACACACACACACTAGAAAATATA [CACACA_site5681] | 9.46 ± 0.2
AAAAAAAAAAAAAACACACACAACACCCATACCTTA [CACACA_site3621] | 9.79 ± 0.057
CTTTTAATATGTGTAGTGCATTTTTTTTTTTTTTTT [GTGCAC_site9727] | 8.62 ± 0.51
GTCCTTCATCATATTTAACACACAGAGAAAAAGCGG [CACACA_site7979] | 8.91 ± 0.3
TTTTTTTTTTTTTTGGTGCGTTTATATATAAATATA | 8.62 ± 0.38
GGAATTATATGAAATAAACACACATATGTAATATTA [CACACA_site8586] | 8.97 ± 0.38
TACATCGACCTATGTACATGCAAATTATTTTTATTT [TGCATGCA_site182] | 8.91 ± 0.42
